Results taken from PubChem BioAssay AID1745853 (National Center for Advancing Translational Sciences (NCATS), 2022).
Where “and” joins values, the source holds several entries; their conditions need not be identical. Equal values may be shown once. Some of the results follow. Shown are side measurements of this screen, not its main read-out; they come without a call.

Key:
Experiment in all cases: Primary Screen for Target Class Profiling of Small Molecule Inhibitors of Methyltransferases
[1] = target: Glycine N-methyltransferase (Homo sapiens) (UniProt Q14749); details: purified enzyme, MTase-Glo SAH luminescence; measured here: GNMT inhibition; at 40 µM; stronger effect = lower value
Method in brief: (§1)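 Each enzyme was assayed with SAM and its substrate. SAH formation detected by MTase-Glo luminescence; single-point 40 uM screen[…].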

[2] = target: Guanidinoacetate N-methyltransferase (Homo sapiens) (UniProt Q14353); details: purified enzyme, MTase-Glo SAH luminescence; measured here: GAMT inhibition; at 40 µM; stronger effect = lower value
Method in brief: as §1

[3] = target: Histamine N-methyltransferase (Homo sapiens) (UniProt P50135); details: purified enzyme, MTase-Glo SAH luminescence; measured here: HNMT inhibition; at 40 µM; stronger effect = lower value
Method in brief: as §1

[4] = target: Nicotinamide N-methyltransferase (Homo sapiens) (UniProt P40261); details: purified enzyme, MTase-Glo SAH luminescence; measured here: NNMT inhibition; at 40 µM; stronger effect = lower value
Method in brief: as §1

[5] = target: Phenylethanolamine N-methyltransferase (Homo sapiens) (UniProt P11086); details: purified enzyme, MTase-Glo SAH luminescence; measured here: PNMT inhibition; at 40 µM; stronger effect = lower value
Method in brief: as §1
% is scaled to controls: 0 for no effect and ±100 for the full control effect.

Row | SMILES | activity change, negative = inhibition [1] | activity change, negative = inhibition [2] | activity change, negative = inhibition [3] | activity change, negative = inhibition [4] | activity change, negative = inhibition [5]
1 | CC1(C(=O)NC2CCCC2)Cn2c(ccc2-c2ccco2)C(=O)N1Cc1ccccc1Br (stereo not given) | -3.97% | 3.6% | 2.92% | -6.03% | -3.63%
2 | COCCN1CCCCCC(O)c2cc(C(=O)N(C)CCCc3c(C)nn(C)c3C)ccc21 (stereo not given) | -3.38% | 1.51% | -1.22% | -2.58% | 0.496%
3 | CCC(=O)N(C1CCOCC1)C1CCN(S(=O)(=O)c2ccc(Cl)c(C)c2)CC1 | -0.034% | 1.61% | 1.63% | -1.39% | 0.741%
4 | CC(C)NC(=O)NCC1Cn2cccc2C(=O)N1Cc1ccccc1 (stereo not given) | -3.74% | -5.33% | -2.9% | -11.8% | -5.08%
5 | Cc1nnc2n(-c3cccc(F)c3)c(=O)c3ccc(C(=O)NCc4ccc5c(c4)OCO5)cc3n12 | -1.55% | 0% | 2.86% | 6.15% | -4.06%
6 | O=c1c2c(nc3cc[nH]n13)CN(S(=O)(=O)c1cccc(C(F)(F)F)c1)CC2 | -11.5% | -14.5% | -11% | -17.7% | -20.3%
7 | O=C(CCC1CCCC1)NCc1nnc2cc(-c3nc(C4CC4)no3)ccn12 | -3.76% | -0.058% | -2.31% | -1.12% | -4.16%
8 | CCCn1c(=O)c2ccc(C(=O)NC(C)CC)cc2n2c(=O)n(Cc3ccc(F)cc3Cl)nc12 (stereo not given) | -0.909% | 0% | 4.01% | -5.17% | -0.921%
9 | O=C(Cn1ccc2cc(S(=O)(=O)N3CCCCC3)ccc21)NCCc1cccs1 | -3.94% | 1.5% | -9.75% | -15.5% | -9.17%
10 | COc1ccc2cc3n(c2c1)CC(C)(C(=O)NCC1CCCO1)N(CC(C)c1ccccc1)C3=O (stereo not given) | 7.85% | 0% | 9.08% | 11.3% | 2.74%
11 | COc1cccc(CNC(=O)c2cc3n(n2)CC(C)(C(=O)NCc2ccc(F)cc2)N(C)C3=O)c1OC (stereo not given) | -7.91% | 0% | -14.1% | -0.344% | -7.11%
12 | CC(C)Cn1c(=O)c2ccccc2n2c(CCC(=O)NCc3ccc4c(c3)OCO4)nnc12 | -6.69% | 1.14% | 0.777% | -9.22% | -4.98%
13 | OC(CC1c2ccccc2-c2cncn21)C1CCCCC1 (stereo not given) | -10.3% | -12.4% | -6.64% | -26.6% | -16.9%
14 | COc1ccccc1CN1C(=O)CSc2c(c3ccccc3n2C)C1C(=O)NCc1ccccc1 (stereo not given) | 3.7% | 4.37% | 5.68% | -0.861% | 2.4%
15 | CCCC1=CC2=C(CO1)C(=O)C(C)(O)C(OC(=O)c1c(C)cc(OC)cc1O)C2 (stereo not given) | -0.905% | 5.69% | 3.2% | -7.7% | 3.42%
16 | COc1ccc(NC(=O)Cn2c(-c3ccc(Cl)cc3)nc(C)cc2=O)cc1OC | -2.89% | -3.87% | -1.72% | -3.83% | -22.3%

Row | SMILES | activity change, negative = inhibition [1] | activity change, negative = inhibition [2] | activity change, negative = inhibition [3] | activity change, negative = inhibition [4] | activity change, negative = inhibition [5]
17 | C=C1C(=O)OC2CC(C)=C(C(C)CCCO[C@@H]3O[C@H](CO)[C@@H](O)[C@H](O)[C@H]3O)C(O)C12 (stereo not given in full) | 0% | 9.12% | 9.21% | -2.81% | 7.56%
18 | CC(C)=CCCC1(C)/C=C/C(OC(=O)C=C(C)C)C(C)(O)/C=C/C(=O)/C(CO)=C\C1 (stereo not given) | -2.31% | 1.94% | 3.59% | -8.6% | -8.29%
19 | COc1ccc(C[C@H](N)C(=O)N[C@H]2[C@@H](O)[C@H](n3cnc4c(N(C)C)ncnc43)O[C@@H]2CO)cc1 | -3.18% | -10.6% and 3.91% | 9.51% | -11.8% and -7.18% | 2.36% and 4.67%
20 | COC1CN(c2cccc(F)c2)C12CCN(C(=O)NCC(C)C)CC2 (stereo not given) | -3.13% | -0.532% | -1.45% | -4.2% | -2.54%
21 | CN(C)C(=O)Nc1cc(-c2ccccc2)ccc1N(C)C | -4.15% | 1.89% | -2.36% | -17.9% | -7.58%
22 | O=c1c2ccccc2nc(SCc2ccccc2Cl)n1CCN1CCOCC1 | -1.25% | 0% | -2.49% | -15.1% | -2.92%
23 | CCn1cc(C(=O)N2C[C@@H](COC)[C@H](C(=O)NC)C2)cn1 | -1.03% | 1.77% | 2.12% | -6.44% | -0.546%
24 | COc1cc(O)cc(/C=C/c2ccc(O[C@@H]3O[C@H](CO)[C@@H](O)[C@H](O)[C@H]3O)cc2)c1 | -0.28% | -0.571% | 5.78% | -8.28% | 4.95%
25 | O=C1CCCN1c1ccc(CN2CC(=O)N(Cc3ccccc3F)c3ccccc3S2(=O)=O)cc1 | -4.34% | 0.938% | 7.32% | -5.69% | -0.18%
26 | CC1(C(=O)NCc2ccc(F)cc2)Cn2cnc(C(=O)NCCc3ccccc3)c2C(=O)N1C1CC1 (stereo not given) | -3.41% | 4.73% | -0.061% | -0.132% | -3.31%
27 | CCCCN1C(=O)c2cc(C(=O)Nc3cc(OC)cc(OC)c3)nn2CC1(C)C(=O)NC1CCCC1 (stereo not given) | 2.82% | 4.87% | -6.23% | -0.28% | 3.4%
28 | COc1ccc2c(c1)CC[C@@H](CN(C)CC(=O)O)[C@H]2c1ccccc1 | 1.76% | -6.11% | 3.26% | -17.3% | -3.1%
29 | COc1c(C(CC(C)C)OC(C)=O)ccc(Oc2c(O)cc(C)cc2/C=C/C(C)=O)c1C(=O)O (stereo not given) | -3.98% | -4.74% | -1.72% | -17.8% | -2.11%
30 | CN1C(=O)[C@H]2CN(Cc3cn[nH]c3-c3ccc(F)cc3)C[C@H]2C1=O | -6.36% | 2.71% | 1.46% | -1.59% | 13.8%
31 | CCCCN1C(=O)c2cc(C(=O)Nc3cc(C)ccc3C)nn2CC1(C)C(=O)NC1CCCC1 (stereo not given) | 4.97% | 0% | -3.88% | 2% | 3.22%
